# From the supplement of paper PMC12217912
# Some of the results follow. Sequences were assembled here from the parent chain. Values near 0.05 are background.
# B1: TEV protease; numbered along this chain (parent)
# chain: MGESLFKGPRDYNPISSSICHLTNESDGHTTSLYGIGFGPFIITNKHLFRRNNGTLVVQSLHGVFKVKDTTTLQQHLVDGRDMIIIRMPKDFPPFPQKLKFREPQREERICLVTTNFQTKSMSSMVSDTSCTFPSGDGIFWKHWIQTKDGQCGSPLVSTRDGFIVGIHSASNFTNTNNYFTSVPKNFMELLTNQEAQQWVSGWRLNADSVLWGGHKVFMVKPEEPFQPVKEATQL
# Variants of: B1
# Assay: raw area under fraction-flipped curve 0-4 h after induction (AUC4h, not background-subtracted), DNA-recorder readout of cleavage of the substrate (dimensionless); higher = more cleavage of the substrate by the protease variant
# Settings: temperature: 34 °C; time window: 0-4 h after rhamnose induction
# Protocol: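 In vivo DNA recorder in E. coli TOP10(DE3) ΔrhaA at 34 °C. Each TEVp single-site mutant (parent TEVp 0) is paired with a single-site variant of the 7-mer TEVs (canonical ENLYFQ|S). The substrate sits between flexible linkers in a Bxb1-sfGFP-TEVs-SsrA fusion, so cleavage stabilises Bxb1 and speeds flipping of a recombination array, read by NGS. The value is the raw area under the fraction-flipped curve over 0-4 h after rhamnose induction (AUC4h), with ≥20 reads per time point. It is not background-subtracted; inactive controls average about 0.047.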
# 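Further: Bxb1 expression induced with 0.2% (w/v) L-rhamnose at OD600 near 0.5, cultures sampled hourly, flipped fraction per protease–substrate barcode pair counted by paired-end Illumina sequencing.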
Variant,area with substrate ENLYFAS,area with substrate ENLYFCS,area with substrate ENLYFDS,area with substrate ENLYFES,area with substrate ENLYFFS,area with substrate ENLYFGS,area with substrate ENLYFHS,area with substrate ENLYFIS,area with substrate ENLYFKS,area with substrate ENLYFLS,area with substrate ENLYFMS,area with substrate ENLYFNS,area with substrate ENLYFPS,area with substrate ENLYFRS,area with substrate ENLYFTS,area with substrate ENLYFVS,area with substrate ENLYFWS,area with substrate ENLYFSS,area with substrate ENLYFYS
V67P,0.04,0.0351,0.0259,0.0511,0.0474,0.051,0.0468,0.0468,0.0416,0.0162,0.0395,0.0482,0.0371,0.0401,0.0223,0.0545,0.0491,–,–
V67F,0.0678,0.0624,0.06,0.0829,–,–,–,0.0508,0.0566,0.0562,0.0628,0.0618,–,–,–,–,0.0528,0.0522,0.0581
V67I,0.0492,–,–,–,0.0694,–,0.0553,–,0.0573,–,0.083,0.0604,0.0446,–,0.0576,–,–,0.0633,0.068
K68P,0.0591,0.0658,–,0.0817,0.065,–,0.062,0.0716,–,–,0.0679,0.0695,0.0462,–,0.0618,0.0331,0.0448,–,–
K68D,0.0648,0.0588,0.0696,–,0.0682,–,–,0.0695,–,–,0.0641,0.0604,0.0813,–,0.0516,–,0.0402,0.0692,0.0831
K68W,0.0637,–,–,0.068,0.0609,0.0375,–,0.0615,0.0597,0.0575,0.0718,0.0668,0.0541,0.0576,0.0539,0.0606,0.0394,0.0584,0.0477
K68H,0.0636,0.0671,–,0.0658,0.0581,–,0.0596,0.0548,–,–,0.0923,–,0.0549,–,0.0638,–,–,0.0729,–
S17T,0.0723,0.062,–,0.0558,0.0567,–,0.0649,0.0507,0.0456,0.0517,–,0.08,0.0482,0.0538,–,–,0.0622,–,0.06
S17I,0.0628,–,0.0644,–,0.0646,0.0588,0.057,0.0532,0.0806,0.063,0.0586,–,0.0611,0.0375,0.0509,–,–,–,0.0476
R10Y,0.061,0.0882,–,0.0569,0.0777,–,0.0582,0.0577,0.0667,0.0539,0.0552,0.0662,0.0699,0.082,–,0.0523,–,0.0652,0.057
N53F,0.0616,0.0656,0.0572,0.0473,0.0565,0.058,–,0.0575,–,–,–,–,0.0323,–,–,–,–,0.0353,0.0472
N53W,0.035,–,0.0831,0.0649,0.0657,0.0666,–,0.0468,0.0593,0.0643,0.0648,–,0.0523,0.063,0.0519,0.0536,0.0614,–,0.0494
N53Y,0.0517,0.0552,0.0576,0.0723,0.0656,0.0584,0.0726,0.0611,–,–,–,0.0599,0.0562,0.0512,0.0565,0.0784,0.0659,0.0598,0.0608
P40V,0.0633,–,0.0546,0.0593,0.0568,–,–,0.0511,0.0572,–,0.0509,0.0824,0.0662,0.0518,–,0.0559,–,–,–
L61R,0.0705,0.0933,0.0484,0.0663,0.0737,0.0482,0.0531,0.0556,0.0613,–,0.0596,0.003,0.057,0.0637,–,0.0599,0.0456,0.0583,0.0628
L61P,0.0613,0.0599,0.0639,0.0462,0.075,0.0548,–,0.061,–,–,0.0598,–,0.0453,–,0.0583,0.0624,–,–,0.066
H47Q,0.0715,0.0547,–,0.0638,0.0684,–,–,0.0587,0.0693,–,0.064,–,0.064,0.0666,0.062,0.0585,0.0615,0.0554,0.0674
G54E,0.0633,0.059,–,–,0.0622,0.0539,–,0.0515,0.0656,0.0519,0.0569,0.0541,0.0668,0.0638,0.0701,–,–,–,–
G63S,0.0567,–,–,0.062,–,0.055,0.0611,0.056,0.055,–,0.0725,0.0403,0.0611,–,0.0692,0.0543,0.0446,0.047,–
T55A,0.0102,0.0504,0.0495,0.0596,0.0671,0.0469,–,0.0472,0.0511,–,0.0514,0.0641,0.0653,0.0524,0.0627,0.0579,–,0.0534,0.0427
T55D,0.0519,–,0.065,0.0697,0.0658,–,0.0578,0.0503,0.0671,–,0.0606,0.0611,–,0.0424,–,–,0.0565,–,–
I42K,0.0487,0.0416,–,0.0547,0.0704,0.0673,0.0617,0.0302,0.0444,–,0.0511,0.0427,0.053,0.0489,0.0476,–,–,0.0423,0.0508
V58H,0.0459,–,–,–,–,–,–,0.0473,0.0534,–,0.0615,–,–,–,–,–,–,–,0.0613
V58N,0.0482,0.0488,–,0.039,0.0559,–,–,0.037,–,–,0.0618,0.0666,0.0454,–,0.0625,0.0616,–,–,0.0467
R51Y,0.0423,–,0.0824,0.0616,0.0714,0.0587,–,0.0368,0.0645,–,–,0.0739,0.0538,–,0.055,–,–,–,0.072
F38Q,0.0423,–,0.0515,0.0522,0.0561,0.0587,0.0554,0.0547,0.0583,–,0.0563,0.0548,0.0565,0.0555,0.0662,0.0586,0.064,0.0506,0.0499
F38H,0.0558,–,0.066,–,–,–,0.0573,0.0502,0.0572,0.0613,0.0652,0.0563,0.0507,0.0469,0.059,–,–,0.0646,0.0665
